Data published in the supplement of paper PMC10369915.
Some of the results follow. Rule as the data show it: active = 3.2 or more and inactive = the rest. The signal is at background level for most entries.

Target: SHP2 C-SH2 domain E139D
Assay: enrichment score (SH2-bound / input frequency) (ratio); bacterial display of known human phosphotyrosine sites (pTyr-Var adds point mutants) read by sequencing; higher = stronger binding; tyrosines were phosphorylated by kinases first
Details: peptide library: pTyr-Var
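Also: displayed peptides selected on beads carrying the immobilized SH2 domain, with library peptides lacking any tyrosine serving as negative controls.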

Enrichment score, inactive:
ETDSEYVKLSK [C7orf57_Y70_A74S] 0.532, KLVQLYVVCTK [BTK_Y461_G462V] 1.25, GESLTYASTTF [C1orf162_Y120] 0.548, GNHISYFQSDG [CACNA1C_Y1757_V1755I_YF] 1.03, GNHVSYFQSDG [CACNA1C_Y1757_YF] 0.858, NKFTTYLPRLP [C9orf24_Y126_YF] 1.12, LTAEVYFPSIK [C5orf64_Y60] 1.35, PRPACYPSTVS [CACNA1C_Y1832_G1831C] 0.794, VHHLVYHHHHH [CACNA1H_Y519] 3.19, DGQVNYEEFVQ [CALM1_Y139] 0.617, GESLTYVSTTF [C1orf162_Y120_A121V] 0.639, PRPAGYPSMVS [CACNA1C_Y1832_T1835M] 0.833, QGLRLYRPHLA [BTK_Y617] 1.24, KDGNGYISVAE [CALM3_Y100_A103V] 0.484, HKLSFYEFDFE [BTK_Y40_YF] 1.36, QDLRLYRPHLA [BTK_Y617_G613D] 1.36, RCKNHYAAFSV [C1QTNF1_Y145_S143N] 2.96, EPSVDYCVVKI [CAD_Y735] 0.61

Target: SHP2 C-SH2 domain wild-type
Assay: as above
Details: peptide library: pTyr-Var

Enrichment score, inactive:
ETDSEYVKLSK [C7orf57_Y70_A74S] 0.453, KLVQLYVVCTK [BTK_Y461_G462V] 1.15, GESLTYASTTF [C1orf162_Y120] 0.448, GNHISYFQSDG [CACNA1C_Y1757_V1755I_YF] 0.67, GNHVSYFQSDG [CACNA1C_Y1757_YF] 0.723, NKFTTYLPRLP [C9orf24_Y126_YF] 1.21, LTAEVYFPSIK [C5orf64_Y60] 1.64, PRPACYPSTVS [CACNA1C_Y1832_G1831C] 0.766, DGQVNYEEFVQ [CALM1_Y139] 0.721, GESLTYVSTTF [C1orf162_Y120_A121V] 0.56, PRPAGYPSMVS [CACNA1C_Y1832_T1835M] 0.775, QGLRLYRPHLA [BTK_Y617] 1.22, KDGNGYISVAE [CALM3_Y100_A103V] 0.509, HKLSFYEFDFE [BTK_Y40_YF] 1.38, QDLRLYRPHLA [BTK_Y617_G613D] 0.911, RCKNHYAAFSV [C1QTNF1_Y145_S143N] 2.63, EPSVDYCVVKI [CAD_Y735] 0.5

Enrichment score, active:
VHHLVYHHHHH [CACNA1H_Y519] 3.46

Target: SHP2 N-SH2 domain L43F
Assay: as above
Details: peptide library: pTyr-Var

Enrichment score, inactive:
ETDSEYVKLSK [C7orf57_Y70_A74S] 0.373, KLVQLYVVCTK [BTK_Y461_G462V] 1.01, GESLTYASTTF [C1orf162_Y120] 0.968, GNHISYFQSDG [CACNA1C_Y1757_V1755I_YF] 0.885, GNHVSYFQSDG [CACNA1C_Y1757_YF] 0.838, NKFTTYLPRLP [C9orf24_Y126_YF] 1.05, LTAEVYFPSIK [C5orf64_Y60] 1.17, PRPACYPSTVS [CACNA1C_Y1832_G1831C] 0.664, DGQVNYEEFVQ [CALM1_Y139] 0.777, GESLTYVSTTF [C1orf162_Y120_A121V] 1.1, PRPAGYPSMVS [CACNA1C_Y1832_T1835M] 0.984, QGLRLYRPHLA [BTK_Y617] 1.13, KDGNGYISVAE [CALM3_Y100_A103V] 0.477, HKLSFYEFDFE [BTK_Y40_YF] 1.51, QDLRLYRPHLA [BTK_Y617_G613D] 0.918, EPSVDYCVVKI [CAD_Y735] 0.426

Enrichment score, active:
VHHLVYHHHHH [CACNA1H_Y519] 3.23, RCKNHYAAFSV [C1QTNF1_Y145_S143N] 3.49

Target: SHP2 N-SH2 domain T42A
Assay: as above
Details: peptide library: pTyr-Var

Enrichment score, inactive:
ETDSEYVKLSK [C7orf57_Y70_A74S] 0.519, KLVQLYVVCTK [BTK_Y461_G462V] 0.929, GESLTYASTTF [C1orf162_Y120] 0.866, GNHISYFQSDG [CACNA1C_Y1757_V1755I_YF] 0.791, GNHVSYFQSDG [CACNA1C_Y1757_YF] 0.643, NKFTTYLPRLP [C9orf24_Y126_YF] 0.896, LTAEVYFPSIK [C5orf64_Y60] 1.29, PRPACYPSTVS [CACNA1C_Y1832_G1831C] 0.637, VHHLVYHHHHH [CACNA1H_Y519] 2.97, DGQVNYEEFVQ [CALM1_Y139] 0.69, GESLTYVSTTF [C1orf162_Y120_A121V] 1, PRPAGYPSMVS [CACNA1C_Y1832_T1835M] 0.78, QGLRLYRPHLA [BTK_Y617] 0.969, KDGNGYISVAE [CALM3_Y100_A103V] 0.612, HKLSFYEFDFE [BTK_Y40_YF] 1.44, QDLRLYRPHLA [BTK_Y617_G613D] 0.733, RCKNHYAAFSV [C1QTNF1_Y145_S143N] 2.54, EPSVDYCVVKI [CAD_Y735] 0.47

Target: SHP2 N-SH2 domain T52S
Assay: as above
Details: peptide library: pTyr-Var

Enrichment score, active:
RCKNHYAAFSV [C1QTNF1_Y145_S143N] 3.46

Enrichment score, inactive:
ETDSEYVKLSK [C7orf57_Y70_A74S] 0.408, KLVQLYVVCTK [BTK_Y461_G462V] 0.928, GESLTYASTTF [C1orf162_Y120] 0.794, GNHISYFQSDG [CACNA1C_Y1757_V1755I_YF] 0.904, GNHVSYFQSDG [CACNA1C_Y1757_YF] 0.697, NKFTTYLPRLP [C9orf24_Y126_YF] 1.18, LTAEVYFPSIK [C5orf64_Y60] 1.34, PRPACYPSTVS [CACNA1C_Y1832_G1831C] 0.671, VHHLVYHHHHH [CACNA1H_Y519] 2.96, DGQVNYEEFVQ [CALM1_Y139] 0.727, GESLTYVSTTF [C1orf162_Y120_A121V] 1.04, PRPAGYPSMVS [CACNA1C_Y1832_T1835M] 1.09, QGLRLYRPHLA [BTK_Y617] 1.23, KDGNGYISVAE [CALM3_Y100_A103V] 0.508, HKLSFYEFDFE [BTK_Y40_YF] 1.12, QDLRLYRPHLA [BTK_Y617_G613D] 0.817, EPSVDYCVVKI [CAD_Y735] 0.73

Target: SHP2 N-SH2 domain wild-type
Assay: as above
Details: peptide library: pTyr-Var

Enrichment score, inactive:
ETDSEYVKLSK [C7orf57_Y70_A74S] 0.595, KLVQLYVVCTK [BTK_Y461_G462V] 1.16, GESLTYASTTF [C1orf162_Y120] 0.491, GNHISYFQSDG [CACNA1C_Y1757_V1755I_YF] 0.755, GNHVSYFQSDG [CACNA1C_Y1757_YF] 0.685, NKFTTYLPRLP [C9orf24_Y126_YF] 0.949, LTAEVYFPSIK [C5orf64_Y60] 1.38, PRPACYPSTVS [CACNA1C_Y1832_G1831C] 0.788, DGQVNYEEFVQ [CALM1_Y139] 0.808, GESLTYVSTTF [C1orf162_Y120_A121V] 0.6, PRPAGYPSMVS [CACNA1C_Y1832_T1835M] 0.939, QGLRLYRPHLA [BTK_Y617] 1.36, KDGNGYISVAE [CALM3_Y100_A103V] 0.55, HKLSFYEFDFE [BTK_Y40_YF] 1.15, QDLRLYRPHLA [BTK_Y617_G613D] 1.07, RCKNHYAAFSV [C1QTNF1_Y145_S143N] 2.59, EPSVDYCVVKI [CAD_Y735] 0.637

Enrichment score, active:
VHHLVYHHHHH [CACNA1H_Y519] 3.55
